In paper PMC11187062:
No constants are given. Whether binding was seen depends on the method and setting. Some binding calls cover weakened binding; strength is not graded here.

T1: human UHRF1 PHD finger, residues 299–366 (human) (UniProt Q96T88)
T1 sequence: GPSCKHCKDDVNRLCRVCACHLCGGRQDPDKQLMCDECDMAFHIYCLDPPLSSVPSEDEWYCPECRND


How the values were obtained:
[1] = target: T1, human UHRF1 PHD finger, residues 299–366 (human); assay: ITC; Microcal PEAQ-ITC, 293 K, 10 mM HEPES pH 7.5, 150 mM NaCl, 0.25 mM TCEP; one-site model; at least three independent titrations; both purified
[2] = target: T1, human UHRF1 PHD finger, residues 299–366 (human); assay: NMR titration; 1H-15N HSQC of 30 µM [15N]-hPHD titrated with non-labelled hDPPA3_(81-118) at 0, 15, 30 and 60 µM; both purified
[3] = target: T1, human UHRF1 PHD finger, residues 299–366 (human); assay: condition: only with excess H3_(1-37W) peptide (hPHD:hDPPA3_(81-118):H3 = 1:2:8); NMR titration; competition: 1H-15N HSQC at 293 K of 60 µM [15N]-hPHD with hDPPA3_(81-118) and/or H3_(1-37W) peptide at molar ratios hPHD:hDPPA3:H3 of 1:0:0, 1:2:0, 1:0:2, 1:2:2 and 1:2:8; both purified

Row | binding [1] | binding [2] | binding [3] | Binder
1 | binds weakly | – | – | SRRGVRTALSVQREKMARLRYMLLGGVRTHERRPTNKE (domain or fragment, UniProt Q6W0C5 81-118) [hDPPA3_(81-118) L88A]
2 | no binding (tested: >85.0 µM) | – | – | SRRGVAALLSVQREKMARLRYMLLGGVRTHERRPTNKE (domain or fragment, UniProt Q6W0C5 81-118) [hDPPA3_(81-118) R86A/T87A]
3 | – | binds weakly | no binding | SRRGVRTLLSVQREKMARLRYMLLGGVRTHERRPTNKE (domain or fragment) [human DPPA3, residues 81–118 (recombinant)]
4 | binds weakly | – | – | SRRGARTLLSVQREKMARLRYMLLGGVRTHERRPTNKE (domain or fragment, UniProt Q6W0C5 81-118) [hDPPA3_(81-118) V85A]
